Experimental data taken from patent publication US20220298214A1 (XINTRUM PHARMACEUTICALS, published 2022).

Key:
GIP receptor = target: T1, GIP receptor (UniProt P48546 22-466, limits assumed); assay: cell-based or functional assay
T1 sequence (looked up): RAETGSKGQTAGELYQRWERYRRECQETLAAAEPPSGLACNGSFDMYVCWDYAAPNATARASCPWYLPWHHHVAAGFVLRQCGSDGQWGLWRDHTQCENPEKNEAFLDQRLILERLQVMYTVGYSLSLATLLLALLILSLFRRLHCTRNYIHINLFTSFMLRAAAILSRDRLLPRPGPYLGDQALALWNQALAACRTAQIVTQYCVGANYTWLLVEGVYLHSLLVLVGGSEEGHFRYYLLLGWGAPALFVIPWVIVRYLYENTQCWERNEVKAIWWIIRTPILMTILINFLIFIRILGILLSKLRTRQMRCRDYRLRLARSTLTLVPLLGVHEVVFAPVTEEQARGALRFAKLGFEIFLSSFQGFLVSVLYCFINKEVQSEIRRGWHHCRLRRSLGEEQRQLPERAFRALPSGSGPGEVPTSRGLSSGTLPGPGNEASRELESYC

GLP-1 receptor = GLP-1 receptor (UniProt P43220); assay: cell-based or functional assay

B1: double-receptor agonist protein GGF7 (ligand)
chain: YGEGTFTSDYSIYLDKQAQRAFVEWLLAQGPSSGAPPPSGGGGSGGGGSGGGGSA[human IgG4 Fc with S228P F234A L235A (EU numbers) skipped]
B1 was tested, and the “EC50 value (pM), cAMP production in CHO-K1-GIPR cells” value (GIP receptor) was 35.3 pM and the “EC50 value (pM), luciferase reporter gene (CRE-Luc) in HEK293-GLP1R-CRE-Luc cells” value (GLP-1 receptor) was 46.1 pM.
